In all, about 44,000 compounds went through this assay and about 340 (0.77%) were called active. Roughly 5% stayed inconclusive and do not appear here. The call rests on the fitted dose curve; in most records, active means well fitted inhibition curve with a large enough effect; inconclusive means small, poorly fitted or top-dose-only effect; inactive means flat fitted curve, though single readings scatter. Some of the results follow.
Experiment: Acumen qHTS Assay for Inhibitors of the mTORC1 Signaling Pathway in MEF (Tsc2-/-, p53-/-) Cells: Sytravon;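 further: plate controls were DMSO for no effect and rapamycin for full effect; nearly all actives have a fitted effect of over 50% in size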
Conditions: phospho-rpS6 immunofluorescence/PI, 24 h; series mostly up to 38.3 µM; activity change, negative = inhibition: at the top concentration
Procedure, shortened: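 Readout is phospho-S6 Alexa 488 signal normalized to PI per well, reported as % active cells with thresholds set from rapamycin (7.5 nM) and DMSO controls. Cells: Tsc2-/-, p53-/- MEFs, 24 hrs compound at 37 C; PI cell number serves as viability.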

Activity change, negative = inhibition, inactive:
COc1ccc(NC(=O)Cn2cnc3c(nc4n3CCCCC4)c2=O)cc1Cl 1.91%, Cc1ccc(N2C(=O)CSC23C(=O)N(CC(=O)NCCc2ccccc2)c2ccccc23)cc1 (stereo unspecified) -7.4%, CCC1CN(C(=O)N2CCC(C(=O)NCc3cccs3)CC2)c2ccccc2O1 (stereo unspecified) 11.4%, CC(=O)c1ccc(NC(=O)c2sc(-n3nc(C)c(Cc4ccc5c(c4)OCO5)c3C)nc2C)cc1 -5.02%, COc1cccc(CNCc2c(C(=O)O)n(Cc3ccc(C)cc3)c3cc(C)ccc23)c1OC -0.504%, O=c1oc2c(CN3CCOCC3)c(O)ccc2cc1-c1ccccc1 0.542%, COc1ccc(N2CCN(C(=O)c3noc4c3CCCCC4)CC2)cc1 0.786%, CCOC(=O)c1ccccc1NC(=O)c1sc2nc(-c3ccc(F)cc3)cn2c1C 2.41%, O=C(NCCc1nc2ccccc2n1Cc1ccc(Cl)cc1)c1ccccc1 -10.9%, COc1ccc(-c2nc3ccccc3o2)cc1NC(=O)c1cc(Br)ccc1OC -1.81%, COc1ccc(C)cc1NC(=O)NCCn1nnc2cc(S(=O)(=O)N(C)C)ccc21 10.3%, Cc1nnc(NC(=O)CSc2nc3c([nH]c4ccccc43)c(=O)n2-c2cccc(Cl)c2)s1 0.054%, COc1ccc(CCNC(=O)c2cnc3sc(N4CCCCCC4)nn3c2=O)cc1 -4.99%, Cc1ccc(C(=O)OCc2cc(=O)n3nc(CC(C)C)sc3n2)cc1 0%, Cc1ccc2occ(CC(=O)Nc3c(C)cccc3C)c2c1 -1.29%, CCCN(C(=O)c1ccc2c(=O)n3c(nc2c1)CCCCC3)c1cccc(Cl)c1 0.475%, COc1ccc(OCC(=O)N2CCN(C(=O)c3ccc(OC)c(OC)c3)CC2)cc1 6.36%, Cc1cccc(C)c1NC(=O)CCSCCc1ccccn1 -13.1%, COc1cn(CC(=O)Nc2ccc(C)cc2)c(CN2CCCCC2)cc1=O -0.868%, O=C(CCNS(=O)(=O)c1ccc2c(c1)CCN2C(=O)C1CC1)Nc1ccc(Cl)cc1 -0.608%, COc1ccccc1CN1CCC(CNC(=O)c2cnn(-c3cccc(Cl)c3)c2C2CCN(C(=O)OC(C)(C)C)CC2)CC1 -6.53%, Cc1c(NS(=O)(=O)c2ccc(C(C)(C)C)cc2)c(=O)n(-c2ccccc2)n1C 4.47%, Cc1cccc(NC(=O)CN2C(=O)C(c3ccc(F)cc3)=NC23CCCCCC3)c1C -6.23%, Cc1cc2c(cc1S(=O)(=O)NCc1ccc(F)cc1)OCC(=O)N2 11.4%, COc1ccc(NC(=O)CN2C(=O)COc3ccc(S(=O)(=O)NC4CCCC4)cc32)cc1OC 1.58%, Cc1ccc(-n2ncc3c(NC4CCCCC4)ncnc32)cc1C 10.2%, O=C(c1ccccc1)n1nc(-c2ccc(Cl)cc2)nc1NCc1ccco1 -16.1%, CCOC(=O)c1cc2c(=O)n3ccccc3nc2n(CCOC)c1=NC(=O)c1c(-c2c(F)cccc2Cl)noc1C -20.5%, CSc1ccc(CCNC(=O)Cn2ncc3c([nH]c4ccccc43)c2=O)cc1 -9.04%, COc1ccccc1C(=O)NC(=O)Nc1ccc(-c2cc(C(F)(F)F)nn2-c2ccccc2)cc1 -2.29%, CCc1ccc(N(CC)C(=O)c2cn(C)c(=O)c3cc(OC)c(OC)cc23)cc1 12.8%, CCOc1ccc2c(c1)NC(c1ccc(OCC)c(OCC)c1)=NC(c1ccc(F)cc1)=N2 -0.734%, CCN(CC)c1ccc(NC(=O)C2CCN(S(=O)(=O)c3c(C)noc3/C=C/c3ccccc3F)CC2)c(C)c1 0.256%, CC(C)(C)C1CCc2c(sc3nc(-c4cc5cc(Cl)ccc5oc4=O)[nH]c(=O)c23)C1 (stereo unspecified) 0%, Cc1ccc(NC(=O)Cn2nc(C(F)(F)F)c3c2CCCC3)cc1 -12.9%, Cc1ccc(S(=O)(=O)NCCc2nnc3ccc(SCC(=O)Nc4c(C)cc(C)cc4C)nn23)cc1 -2.5%, CCn1c(CNC(=O)c2ccc(OC)cc2)nnc1SCC(=O)Nc1cccc(C)c1 1.39%, Cc1ccc(S(=O)(=O)N2CCCc3cc(NC(=O)c4ccc(Cl)cc4)ccc32)cc1 17%, CCOc1ccc(CCNC(=O)c2c3c(nc4ccccc24)C(=O)N(C2CCCCC2)C3)cc1 -3.34%, COC(=O)c1c(NC(=O)c2cc(=O)c3cc(C)cc(C)c3o2)sc2c1CCC2 -2.74%, CCOC(=O)c1ccc(NC(=O)c2nc(SCc3ccc(F)cc3)ncc2Cl)cc1 -6.5%, COc1ccccc1NC(=O)c1cc2cc3ccc(OC)c(Cl)c3nc2s1 -5.66%, O=C(NCCc1ccccc1Cl)c1cc2ccccn2n1 -4.11%, Cc1ccc(CC(=O)NCc2nc(-c3ccccc3)no2)cc1 -3.26%, CCCCn1c(=O)c2oc3ccccc3c2n(Cc2ccc(C)cc2)c1=O 2.37%, Cc1cc(SCC(=O)Nc2ccc(F)cc2F)nc(=O)[nH]1 4.04%, O=C(Cn1cc(S(=O)(=O)Cc2ccccc2F)c2ccccc21)Nc1ccc(F)c(Cl)c1 4.96%, COc1ccc(CNc2ncnc3c2c(-c2ccccc2)cn3-c2ccc(C)c(Cl)c2)cc1 10.8%, COc1cccc(C(=O)Nc2nc(-c3nnn(-c4cccc(Cl)c4C)c3C)ns2)c1 6.1%, COc1ccc2c(CNCc3ccco3)c(C(=O)O)n(Cc3cccc(F)c3)c2c1 -8.99%, CCCN(CCC)C(=O)C1CCN(c2cc(C)nc3c(-c4ccc(Cl)cc4)c(C)nn23)CC1 -2.31%, Cn1c(NCCCO)nc2c1c(=O)n(Cc1cccc(F)c1)c(=O)n2C 12.1%, COc1ccc(C(=O)Nc2ccc(-c3nc4ccccc4s3)c(Cl)c2)cc1Cl -12.3%, O=C(NCCO)c1ccc(-c2nnc(Nc3ccc(OC(F)(F)Cl)cc3)c3ccccc23)cc1 -13.9%, CCCc1nn2c(=O)cc(COC(=O)c3ccc4c(c3)OCO4)nc2s1 3.08%, Cc1cc2nc(-c3ccc(OCc4ccccc4F)cc3)cc(C(F)(F)F)n2n1 2.67%, Cc1ccc(C)c(NC(=O)c2oc(=O)c3ccccc3c2-c2ccccc2)c1 -0.454%, Cc1ccc(-c2c(C(=O)Nc3ccccc3F)oc(=O)c3ccccc23)cc1 4.39%, Cc1ccc(C)c(Cn2c(SCC(=O)NCc3ccccc3)nc3ccccc32)c1 0%, CCOC(=O)c1cccc(NC(=O)C2=C(C)C(=O)OC23CCCCC3)c1 -0.417%, Cc1ccc(C)c(N2CCN(C(=O)Cn3cnc4nc5c(cc4c3=O)CCCC5)CC2)c1 0.141%, Cn1c(NCCN)nc2c1c(=O)n(Cc1ccccc1)c(=O)n2C 9.41%, Cc1ccc2c(c1)c(N1CCCC1=O)c(C(=O)Nc1ccc(F)cc1F)n2C -11.8%, Cc1cccc(N(C)c2ccc3cc(S(=O)(=O)N4CCCC4)ccc3n2)c1 -2.65%, CCC(=O)N1CCc2cc(S(=O)(=O)NC(Cc3ccccc3)C(=O)Nc3cccc(OC)c3)ccc21 (stereo unspecified) -0.999%, CCOC(=O)c1cc(S(=O)(=O)N2CCN(c3ccc(C)cc3C)CC2)[nH]n1 0.0904%, Cc1ccc(C)c(NC(=O)CSC2=Nc3ccccc3N=C(c3ccc(F)cc3)C2)c1 -4.56%, Cc1ccc(-c2nnc3c4ccccc4c(C)nn23)cc1NC(=O)c1ccccc1Cl 5.78%, COc1cccc(N2CCN(c3ncnc4onc(-c5ccc(F)cc5)c34)CC2)c1 3.68%, O=C(C1CCCN(S(=O)(=O)c2cccc3nsnc23)C1)N1CCN(c2ccccc2Cl)CC1 (stereo unspecified) -0.0431%, O=C(CCCCCn1c(=O)[nH]c2ccccc2c1=O)NCc1ccccc1 1.01%, Cc1nc2scc(C)n2c(=O)c1S(=O)(=O)N1CCN(c2cccc(C(F)(F)F)c2)CC1 -23.5%, CN(C)c1ccc(NC(=O)Cn2cc(S(=O)(=O)Cc3cccc(Cl)c3)c3ccccc32)cc1 -0.105%, CC(=O)c1cc(-c2ccccc2)n(CCC(=O)Nc2ccc(C)cc2C)c1C -4.55%, COc1ccc(N2CC(NC(=O)c3cc4ccccc4o3)CC2=O)cc1 (stereo unspecified) -2.39%, Cc1cc(C(=O)NCc2ccc(Cl)cc2)c2c(C)nn(-c3ccccc3)c2n1 1.02%, COC(=O)c1c(NC(=O)Nc2ccc(Cl)cc2)sc(C)c1C 1.57%, COc1ccccc1CNC(=O)CCC1N=C2c3ccccc3N=C(SCc3ccc(C)cc3)N2C1=O (stereo unspecified) -2.02%, CS(=O)(=O)N1CCc2cc(C(=O)N3CCN(c4ccccc4)CC3)ccc21 0.404%, CC1CCC(N2CC(=O)N(C3CCCCC3)C(c3ccc(F)cc3)C2=O)CC1 (stereo unspecified) 4.98%, Cc1ccc2c(c1)N(C(=O)Nc1cccc(C)c1C)CCO2 -6.04%, COc1ccc(CCC(=O)NCCc2csc(-c3ccc(C(F)(F)F)cc3)n2)cc1 -28.3%, CCCc1nnc(NC(=O)c2cc(=O)c3cc(Cl)ccc3o2)s1 5.95%, COc1ccccc1NC(=O)NCc1cccn1Cc1ccccc1 3.87%, Cc1cc(Br)ccc1NC(=O)c1ccc(NS(=O)(=O)c2c(C)noc2C)cc1 -5.25%, COc1cccc(-c2nc(SCC(=O)NC3CCCC3)c(-c3ccccc3)[nH]2)c1 -16.7%, COc1ccc(NC(=O)Cn2cnc3ccc(S(=O)(=O)N4CCC(C)CC4)cc3c2=O)cc1OC 2.59%, CCOc1ccc(NC(=O)/C=C\C(=O)N(c2ccc(C(C)C)cc2)C(C(=O)NCc2ccco2)c2ccc(F)cc2)cc1 (stereo unspecified) -2.44%, O=C(CSc1nc(-c2cccs2)nc2cc(=O)[nH]n12)Nc1ccccc1F -11.3%, CCCOc1ccc(C(=O)Nc2ccc(Cl)c(-c3nc4ncccc4o3)c2)cc1 3.39%, CCOc1ccc(CCNC(=O)CSc2cc(=O)n(C)c3cc(Cl)ccc23)cc1OCC 2.57%, Cc1c(-c2nsc(NC(=O)c3cccc(Cl)c3)n2)nnn1-c1ccccc1C(F)(F)F -8.58%, CSc1ccc(CCNC(=O)CN2C(=O)c3cccnc3Oc3ccc(Cl)cc32)cc1 -4.67%, CCOc1ccc(CCNC(=O)CCc2c(C)nc3cc(-c4ccccc4OC)nn3c2C)cc1 -4.23%, Nc1c(-c2nc(-c3ccc4c(c3)OCO4)cs2)c2ccccn2c1C(=O)c1ccccc1 -0.221%, CCCCn1c(NCc2cc(Cl)ccc2O)nc2ccccc21 -0.495%
